# In all, about 52,000 compounds went through this assay and about 1,700 (3.3%) were called active. Cut-off read from the data, not from the text of the source: active = survival mostly below about 52% (no sharp cut-off); inactive = mostly above about 56%. This is one part of the list.
# Test system: Wild type
# Experiment: S. aureus survival, RN4220 and DeltatarO strains – OD600, teichoic acid synthesis inhibitors, primary screen (AID 463173)
# Settings: S. aureus RN4220 wild type/DeltatarO growth, OD600, 18 h, stronger effect = lower value, screened at 18.75 µg/mL (by protocol)
row,SMILES,survival
1,CC(=O)Nc1ccc(NC(=O)c2cccc(C)c2)cc1,inactive: 107%
2,CCC1CN(C(=O)N2CCC(C(=O)Nc3ccccc3F)CC2)c2ccccc2O1 (stereo not given),inactive: 84%
3,Cc1ccc(C)c(N2CCN(c3c(CN4CCCC4)c(=O)oc4ccccc34)CC2)c1,inactive: 80%
4,COc1ccccc1CNC(=O)c1ccc2nc(N3CCCCC3)sc2c1,inactive: 122%
5,CCCC(=O)Nc1ccccc1OCc1cc(=O)n2cc(C)ccc2n1,inactive: 53%
6,Cc1ccc(CCNC(=O)c2ccc3c(Cl)c4c(nc3c2)CCCC4)cc1,inactive: 71%
7,O=C(C1CC(c2ccc(Cl)cc2)=NO1)N1CCCC1 (stereo not given),inactive: 112%
8,Cc1ccc(-n2c(=O)cc(N3CCN(c4ccccc4Cl)CC3)[nH]c2=O)cc1,inactive: 19%
9,O=C(Nc1cccc(Cl)c1Cl)c1cc(S(=O)(=O)NCc2ccc3c(c2)OCO3)ccc1F,inactive: 72%
10,CC(C)NC(=O)CN1CCN(c2ccc(F)cc2)CC1,inactive: 108%
11,CCc1ccc(S(=O)(=O)N(C(=O)c2ccncc2)c2ccc3oc(C)c(C(=O)OC)c3c2)cc1,inactive: 74%
12,Cc1cc(C)c(/C=N/NC(N)=O)c(C)c1/C=N/NC(N)=O,inactive: 108%
13,COc1cccc(Cn2c(Oc3cc(C)cc(C)c3)nc3c2c(=O)n(C)c(=O)n3C)c1,inactive: 60%
14,COc1ccc(CC(=O)N2CCc3cc(OC)c(OC)cc3C2COc2cc(C)cc(C)c2)cc1OC (stereo not given),inactive: 128%
15,Cc1cc(C)cc(NC(=O)CCS(=O)(=O)c2cccc3nsnc23)c1,inactive: 64%
16,CCOC(=O)c1ccc(N2C(=O)c3n[nH]c(-c4ccco4)c3C2c2ccc(C)cc2)cc1 (stereo not given),inactive: 32%
17,CCOc1ccc(CCNC(=O)CN2CCN(Cc3ccc(Cl)cc3)C2=O)cc1OCC,inactive: 86%
18,CC(=O)c1ccc(NS(=O)(=O)c2cccc(S(=O)(=O)c3ccc(Cl)cc3)c2)cc1,inactive: 137%
19,Cc1cccc(C)c1Nc1nn2c(=O)c3cc4c(cc3nc2s1)OCO4,inactive: 78%
20,Cc1cccc(NC(=O)CSc2ccc(-c3ccccn3)nn2)c1,inactive: 108%
21,CCc1ccc(N(CC)C(=O)c2cc3c(=O)oc4ccc(C)cc4c3s2)cc1,inactive: 66%
22,COc1cccc(NC(=O)C(=O)NCC(c2ccc3c(c2)OCO3)N2CCN(C)CC2)c1 (stereo not given),inactive: 60%
23,CCc1ccc(-c2cn3c(n2)sc2cc(C(=O)NC4CCCCC4)ccc23)cc1,inactive: 98%

row,SMILES,survival
1,COc1cccc(-c2nc(S(=O)(=O)c3ccc(Cl)cc3)c(NCc3ccccc3)o2)c1,inactive: 129%
2,COc1cccc(C(=O)Nc2cccc(OCc3cc(=O)n4c5c(sc4n3)CCCC5)c2)c1,inactive: 73%
3,CC(=O)Nc1ccc(NS(=O)(=O)c2c(C(=O)N3CCC(C)CC3)c(C)n(C)c2C)cc1,active: -3%
4,CCCCN(CC)CCCNC(=O)c1cc2c(=O)[nH]c3ccccc3c2n1C,inactive: 79%
5,COc1ccc(NC(=O)CCCSc2nc(-c3ccco3)cc(C(F)(F)F)n2)cc1OC,inactive: 52%
6,COCCNc1oc(-c2ccccc2)nc1S(=O)(=O)c1ccc(Br)cc1,inactive: 55%
7,COc1ccc2oc(=O)c(C(=O)NCCc3c(C)[nH]c4ccc(F)cc34)cc2c1,inactive: 77%
8,COc1ccc2sc(N(Cc3cccnc3)C(=O)c3ccc4c(c3)OCCO4)nc2c1,inactive: 73%
9,COc1ccccc1NC(=O)CC1COc2ccccc2O1 (stereo not given),inactive: 103%
10,O=C(Nc1ccc(F)c(Cl)c1)N1CC=C(c2c[nH]c3ccccc23)CC1,inactive: 73%
11,Cn1c(=O)oc2cc(S(=O)(=O)N3CCCC(C(=O)NCc4ccc(F)cc4)C3)ccc21 (stereo not given),inactive: 132%
12,CC(C)CCNC(=O)c1cc2cc(S(=O)(=O)N3CCCCC3)ccc2n1C,inactive: 74%
13,O=C(O)CSC1=NC2CCCCC2N1 (stereo not given),inactive: 108%
14,O=C(NCCc1ccccc1Cl)c1sc2ncccc2c1-n1cccc1,inactive: 148%
15,Cn1c2ccccc2c2nnc(SCC(N)=O)nc21,inactive: 116%
16,CCC(=O)N1c2ccccc2CC1C(=O)NCCc1ccccc1 (stereo not given),inactive: 66%
17,COc1cccc(Cn2nnc3c(=O)[nH]c(C4CCN(C(=O)c5ccccc5Cl)CC4)nc32)c1,inactive: 14%
18,CCC(=O)Nc1ccccc1-c1nc2ccccc2n(CC(=O)c2ccc(C)cc2)c1=O,inactive: 84%
19,CSc1ncc(Cl)c(C(=O)Nc2c(C(=O)Nc3cccc(Cl)c3)oc3ccccc23)n1,inactive: 86%
20,Cc1ccc(N2CCN(C(=O)c3cnc(N4CCCCC4)c4ccccc34)CC2)c(C)c1,inactive: 82%
21,COc1ccc(CNC(=O)CCCN2C(=O)COc3ccc(C)cc32)cc1,inactive: 122%
22,O=C(NCc1ccccc1Br)c1cnc2sc(N3CCCCCC3)nn2c1=O,inactive: 70%
23,CC1=C(C(N)=O)C(c2ccccc2Br)n2ncnc2N1 (stereo not given),inactive: 80%

row,SMILES,survival
1,COc1ccc(-n2nc(C(=O)N3CCCC(C)C3)c3c4ccccc4n(C)c3c2=O)cc1Cl (stereo not given),inactive: 77%
2,CCOC(=O)c1ccc(NC(=O)CSc2c3c(nc4cc(Cl)ccc24)CCCC3)cc1,inactive: 79%
3,COc1cc(OC)c(NC(=O)CCCn2nc(C)c3c(C)n(-c4ccccc4)nc3c2=O)cc1Cl,active: 0%
4,Cc1nn2c(C)c(C(=O)NCc3ccco3)cnc2c1-c1ccccc1,inactive: 131%
5,Cc1nn(C(=O)c2ccc(Cl)cc2)c(C)c1S(=O)(=O)N1CCCCCC1,inactive: 87%
6,CCN(CC)c1nc2ccccc2nc1C(=O)Nc1cc(OC)c(OC)c(OC)c1,inactive: 126%
7,O=C(NC1CC(=O)N(c2ccccc2)C1)c1ccc(S(=O)(=O)N2CCCCC2)cc1 (stereo not given),active: -1%
8,CCn1c(SCC(=O)NC2CCCC2)nnc1-c1ccccc1,inactive: 98%
9,Cc1ccc(N2CCn3c2nc2c3c(=O)n(CCCc3ccccc3)c(=O)n2C)cc1C,inactive: 83%
10,COc1ccc(OCC(=O)NCC(c2ccc(OC)cc2)N2CCCCC2)cc1 (stereo not given),inactive: 87%
11,COc1ccc(C2C(C(=O)Nc3cccnc3)=C(C)Nc3nc(-c4ccccc4)nn32)cc1OC (stereo not given),inactive: 67%
12,O=c1[nH]c(=O)n(C2CCCCC2)c(O)c1C1=Nc2ccccc2SC(c2ccccc2)C1 (stereo not given),inactive: 105%
13,Cc1cccc(OCC(=O)N(Cc2ccc(C(C)(C)C)cc2)Cc2ccco2)c1,inactive: 78%
14,COc1ccccc1NC(=O)C1=C(C)Nc2nc(SCc3ccccc3Cl)nn2C1c1ccccn1 (stereo not given),inactive: 142%
15,CN(C)c1ccc(/C=C/c2noc(-c3ccccc3O)n2)cc1,inactive: 98%
16,Cc1ccc(C(c2cccc(Br)c2)c2c(C)[nH]c3ccccc23)s1 (stereo not given),inactive: 109%
17,COc1cc(OC)cc(C(=O)N2CCN(C(=O)COc3ccccc3)CC2)c1,inactive: 64%
18,COCCn1c(SCC(=O)N2CCCCC2C)nc2sc(C)c(C)c2c1=O (stereo not given),inactive: 103%
19,CC(C)c1ccc(NC(=O)C(C)N(c2ccccc2)S(C)(=O)=O)cc1 (stereo not given),inactive: 86%
20,O=c1c2ccccc2n2c(-c3ccc(Cl)cc3)nnc2n1CCc1ccccc1,inactive: 84%
21,CSc1ccc(CCNS(=O)(=O)c2ccc3c(c2)C(C)(C)C(=O)N3C)cc1,inactive: 71%
22,COc1cc(OC)c(NC(=O)N2CC3CCCN3c3ccccc32)cc1Cl (stereo not given),inactive: 89%
23,COCCCNc1nc(NCc2cccc(Cl)c2)c2cnn(C)c2n1,inactive: 58%

row,SMILES,survival
1,COc1ccc(-c2nc(CSc3nnc(C)n4c3cc3occc34)c(C)o2)cc1OC,inactive: 95%
2,CCc1ccc(-n2nc(C)c3c(C)cc(=O)n(CC(=O)Nc4ccc(C(C)=O)cc4)c32)cc1,inactive: 68%
3,CC(C)C(NS(=O)(=O)c1ccc2c(c1)oc(=O)n2C)C(=O)NCCc1ccccc1 (stereo not given),inactive: 90%
4,Cc1ccc(C)c(CN2C(=O)c3ccccc3S(=O)(=O)c3ccc(C(=O)NCCCN4CCCC(C)C4)cc32)c1 (stereo not given),inactive: 134%
5,O=C(Cn1ncc2c3ccccc3n(Cc3ccc(F)cc3)c2c1=O)NCCC1=CCCCC1,inactive: 81%
6,O=S(=O)(NN=C1CCCCC1)c1ccccc1,inactive: 106%
7,Cc1c(C(=O)Nc2ccc(C(C)C)cc2)sc2nc3n(c(=O)c12)CCC3,inactive: 90%
8,CCC(CC)c1nn2c(=O)cc(COc3ccc(NC(=O)c4ccc(C)cc4)cc3)nc2s1,inactive: 86%
9,Cc1nn(C(=O)c2ccc(Cl)cc2)c(C)c1S(=O)(=O)N1CCOCC1,inactive: 119%
10,Cn1c(NN)nc2sc3c(c2c1=O)CCCC3,inactive: 108%
11,Cc1ccc(CNc2ncnc3c2nnn3C)cc1,inactive: 49%
12,CC1CCC(NC(=O)CN2CCC(n3nnc4ccccc43)CC2)CC1 (stereo not given),inactive: 122%
13,COc1ccc(NC(=O)CC2C(=O)N(c3cccc(C)c3)C(=O)N2Cc2cccnc2)cc1 (stereo not given),inactive: 78%
14,Cc1cn2c(=O)cc(COC(=O)c3cccc(NC(=O)c4ccccc4Cl)c3)nc2s1,inactive: 66%
15,CCc1ccc(CNC(=O)CN2C(=O)CSc3c2c(C)nn3-c2ccccc2)cc1,inactive: 125%
16,Cc1ccc(C)c(NC(=O)Nc2csc3c2CCCC3)c1,inactive: 81%
17,COc1ccccc1NC(=O)Cn1c(=O)n(Cc2nc(-c3ccccc3)no2)c(=O)c2ccccc21,inactive: 72%
18,COc1ccc2sc(N)nc2c1,inactive: 115%
19,CCOc1ccc2nc(N3CCCC(C(=O)NCc4ccc(C)cc4)C3)sc2c1 (stereo not given),inactive: 82%
20,CC(C)NC(=O)C1CCN(C(=O)N2CC(C)Oc3ccccc32)CC1 (stereo not given),inactive: 86%
21,CCC1=C(c2ccc(C)cc2)S(=O)(=O)N=C1N1CCC(C(=O)N2CCCCC2)CC1,inactive: 69%
